Data as given in article PMC6265451.
Results are given in words; binding and its absence hold for the method and conditions named. Some binding calls cover weakened binding; strength is not graded here.

Chains of the proteins cited; added tags and fusions are not shown.
UniProt P29468: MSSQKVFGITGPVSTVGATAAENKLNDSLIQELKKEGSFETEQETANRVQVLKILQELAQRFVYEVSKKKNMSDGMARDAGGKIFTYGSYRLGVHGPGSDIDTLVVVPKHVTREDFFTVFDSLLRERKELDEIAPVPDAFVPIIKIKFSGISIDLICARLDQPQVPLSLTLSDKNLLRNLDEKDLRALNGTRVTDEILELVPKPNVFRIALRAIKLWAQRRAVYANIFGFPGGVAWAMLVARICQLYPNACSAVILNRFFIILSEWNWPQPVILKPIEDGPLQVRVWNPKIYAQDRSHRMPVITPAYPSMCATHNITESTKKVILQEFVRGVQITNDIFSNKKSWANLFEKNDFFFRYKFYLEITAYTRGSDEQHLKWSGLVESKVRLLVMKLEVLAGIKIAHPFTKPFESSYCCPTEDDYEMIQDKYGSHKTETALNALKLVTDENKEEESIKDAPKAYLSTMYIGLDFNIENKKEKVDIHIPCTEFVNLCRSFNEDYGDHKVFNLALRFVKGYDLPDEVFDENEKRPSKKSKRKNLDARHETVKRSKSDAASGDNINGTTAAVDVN

T1: Mpe1-TAPS (S. cerevisiae) (UniProt P35728)
T1 sequence: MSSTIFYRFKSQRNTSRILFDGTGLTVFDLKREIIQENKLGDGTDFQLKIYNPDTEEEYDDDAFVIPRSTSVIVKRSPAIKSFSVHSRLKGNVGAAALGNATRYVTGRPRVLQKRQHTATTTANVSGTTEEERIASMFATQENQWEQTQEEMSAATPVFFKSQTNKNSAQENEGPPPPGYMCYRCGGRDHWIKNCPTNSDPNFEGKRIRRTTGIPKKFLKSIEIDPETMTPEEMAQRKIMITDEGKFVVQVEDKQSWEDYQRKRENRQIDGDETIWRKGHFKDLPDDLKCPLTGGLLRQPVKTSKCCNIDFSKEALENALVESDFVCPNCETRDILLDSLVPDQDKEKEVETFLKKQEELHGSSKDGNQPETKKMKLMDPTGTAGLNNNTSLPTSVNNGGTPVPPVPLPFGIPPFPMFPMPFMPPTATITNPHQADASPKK

T2: Pta1-TAPS (S. cerevisiae) (UniProt Q01329)
T2 sequence: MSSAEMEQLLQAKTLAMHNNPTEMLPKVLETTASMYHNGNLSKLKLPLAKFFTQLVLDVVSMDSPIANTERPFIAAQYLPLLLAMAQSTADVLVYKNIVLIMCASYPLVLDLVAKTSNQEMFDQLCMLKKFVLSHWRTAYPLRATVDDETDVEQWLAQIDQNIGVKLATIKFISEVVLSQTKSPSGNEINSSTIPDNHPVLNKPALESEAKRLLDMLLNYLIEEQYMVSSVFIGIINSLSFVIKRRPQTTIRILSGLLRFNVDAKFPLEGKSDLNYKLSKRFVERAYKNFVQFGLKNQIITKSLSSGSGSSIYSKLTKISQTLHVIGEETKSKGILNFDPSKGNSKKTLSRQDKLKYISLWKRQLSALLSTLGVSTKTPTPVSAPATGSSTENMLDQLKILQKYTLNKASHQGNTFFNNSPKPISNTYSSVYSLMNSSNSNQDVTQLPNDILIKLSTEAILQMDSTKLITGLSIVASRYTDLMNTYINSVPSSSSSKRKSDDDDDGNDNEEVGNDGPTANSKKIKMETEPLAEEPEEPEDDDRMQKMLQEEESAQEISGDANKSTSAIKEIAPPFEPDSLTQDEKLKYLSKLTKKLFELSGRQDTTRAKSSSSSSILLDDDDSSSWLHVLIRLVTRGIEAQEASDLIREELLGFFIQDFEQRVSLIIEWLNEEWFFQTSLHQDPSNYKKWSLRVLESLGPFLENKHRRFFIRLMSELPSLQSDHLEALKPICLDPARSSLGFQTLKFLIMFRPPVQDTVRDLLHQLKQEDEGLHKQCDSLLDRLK

T3: Ref2-TAPS (S. cerevisiae) (UniProt P42073)
T3 sequence: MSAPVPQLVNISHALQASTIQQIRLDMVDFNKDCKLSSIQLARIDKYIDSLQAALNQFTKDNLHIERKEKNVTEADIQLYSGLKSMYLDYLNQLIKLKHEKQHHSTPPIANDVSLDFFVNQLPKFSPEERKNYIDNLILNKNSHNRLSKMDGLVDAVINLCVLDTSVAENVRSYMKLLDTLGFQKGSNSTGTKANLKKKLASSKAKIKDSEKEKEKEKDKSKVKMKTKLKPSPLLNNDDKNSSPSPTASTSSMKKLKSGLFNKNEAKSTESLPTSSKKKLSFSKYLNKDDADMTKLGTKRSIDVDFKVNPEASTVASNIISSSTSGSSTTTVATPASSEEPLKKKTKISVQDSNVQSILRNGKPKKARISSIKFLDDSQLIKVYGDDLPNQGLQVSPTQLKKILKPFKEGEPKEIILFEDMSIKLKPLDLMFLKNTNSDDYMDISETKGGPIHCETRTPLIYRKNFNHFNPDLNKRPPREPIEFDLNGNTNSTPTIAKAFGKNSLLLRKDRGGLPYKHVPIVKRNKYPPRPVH

T4: Syc1-TAPS (S. cerevisiae) (UniProt Q08553)
T4 sequence: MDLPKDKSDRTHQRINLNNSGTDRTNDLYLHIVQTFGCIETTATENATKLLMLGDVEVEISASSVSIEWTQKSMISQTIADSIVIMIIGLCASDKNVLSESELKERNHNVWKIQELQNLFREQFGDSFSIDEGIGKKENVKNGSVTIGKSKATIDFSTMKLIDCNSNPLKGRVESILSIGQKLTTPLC

B1: Pta1 (protein, UniProt Q01329 1-785)
chain: T2 sequence
B2: Ipa1/Yjr141w (protein, UniProt P47172 1-347)
chain: MVQYVVEWLPRIQSISVVVEGWKQVEIKNLKDTLMSISGDEEQVEDILLPVEVEEKVDASYKFKNRGKDLEWMTKLRSKSSKIYDSSIMSLPDGRWTKEELRSDSDFSIECLNCKQKIISKDNCQVLNDMPSEFWFELMDYWHCHKPDVKEDKSSYTRFETLKPSKNEILIGSSYFQGTPATFENVATTKENDNVLCIKCSAVLGQVTAGSLYKLHKWKLQLIRSGNTYKFPPECDITISLINVVKANSCRYVLVKCKTESLLVWIFSVDIGVTLTGNKSFKRAMKLLYTNSVTTINRCLNRQVVEELDFQETSFNAFYSALQHTNALLPSSMKKIGEWTISYTSLI
B3: Syc1 (protein, UniProt Q08553 1-188)
chain: T4 sequence
B4: Fip1 (protein, UniProt P45976 1-327)
chain: MSSSEDEDDKFLYGSDSELALPSSKRSRDDEADAGASSNPDIVKRQKFDSPVEETPATARDDRSDEDIYSDSSDDDSDSDLEVIISLGPDPTRLDAKLLDSYSTAATSSSKDVISVATDVSNTITKTSDERLITEGEANQGVTATTVKATESDGNVPKAMTGSIDLDKEGIFDSVGITTIDPEVLKEKPWRQPGANLSDYFNYGFNEFTWMEYLHRQEKLQQDYNPRRILMGLLSLQQQGKLNSANDTDSNLGNIIDNNNNVNNANMSNLNSNMGNSMSGTPNPPAPPMHPSFPPLPMFGSFPPFPMPGMMPPMNQQPNQNQNQNSK
B5: Yth1 (protein, UniProt Q06102 1-208)
chain: MSLIHPDTAKYPFKFEPFLRQEYSFSLDPDRPICEFYNSREGPKSCPRGPLCPKKHVLPIFQNKIVCRHWLRGLCKKNDQCEYLHEYNLRKMPECVFFSKNGYCTQSPDCQYLHIDPASKIPKCENYEMGFCPLGSSCPRRHIKKVFCQRYMTGFCPLGKDECDMEHPQFIIPDEGSKLRIKRDDEINTRKMDEEKERRLNAIINGEV
B6: Mpe1 (protein, UniProt P35728 1-441)
chain: T1 sequence

Each binder was assayed against T1, Mpe1-TAPS (S. cerevisiae) (assay: SEC; TAPS affinity purification from tagged yeast strain, then Superose 6 PC 3.2/30 in 20 mM HEPES pH 7.9, 150 mM KCl, 3 mM DTT, 0.5 mM Mg(OAc)2, 0.5 mM MnCl2; fractions on Coomassie-stained SDS-PAGE).

binding	Binder
binds	B1
binds	B2
no binding	B3

Each binder was assayed against Pap1-TAPS (S. cerevisiae) (UniProt P29468) in the same assay as above.

binding	Binder
binds	B1
no binding	B3
binds	B5

Binder	binding
B4	binds

These binders were tested against T2, Pta1-TAPS (S. cerevisiae) in the same assay as above.

binding	Binder
binds	B6
binds	B3
binds	B5

Binder	binding
B4	binds

These binders were tested against T3, Ref2-TAPS (S. cerevisiae) in the same assay as above.

binding	Binder
binds	B6
binds	B1
binds	B3
binds	B5

Binder	binding
B4	binds

Each binder was assayed against T4, Syc1-TAPS (S. cerevisiae) in the same assay as above.

binding	Binder
no binding	B6
binds	B1
no binding	B5

Binder	binding
B4	no binding

Each binder was assayed against T2, Pta1-TAPS (S. cerevisiae) (assay: anion exchange chromatography; TAPS affinity purification from tagged yeast strain (Ref2-tagged; Pta1-tagged with SYC1 deleted), then Mono Q 5/50 GL in 20 mM HEPES pH 7.9, 150 mM KCl, 3 mM DTT, 0.5 mM Mg(OAc)2; APT eluted at 260 mM KCl and CPF at 400 mM KCl).

binding	Binder
binds	B6
binds	B5

Binder	binding
B4	binds

What follows are binders tested against T3, Ref2-TAPS (S. cerevisiae) in the same assay as above.

binding	Binder
binds	B6
binds	B1
binds	B3
binds	B5

Binder	binding
B4	binds
